Data reported in article PMC6919601, “Identification of Plasmodium dipeptidyl aminopeptidase allosteric inhibitors by high throughput screening” (PLoS ONE, 2019).
Several values for one entry are separate records, joined by “and”; a condition that tells them apart may be missing. Equal entries are not always repeated. In all, about 110,000 compounds went through this assay and about 230 (0.21%) showed an effect of 50% or more. The list shows a part of the results.

These molecules were tested against DPAP1 (Plasmodium falciparum, UniProt Q8IIJ9) (assay: primary screen, percent inhibition; read by cleavage of a fluorogenic dipeptide substrate; higher = more effect of the substance).
Set-up: species or system P. falciparum D10 trophozoite lysates; single well
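Further: 30 min substrate incubation versus DMSO and 10 µM JCP410 controls.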

DPAP1, sequence (Q8IIJ9 whole entry, looked up): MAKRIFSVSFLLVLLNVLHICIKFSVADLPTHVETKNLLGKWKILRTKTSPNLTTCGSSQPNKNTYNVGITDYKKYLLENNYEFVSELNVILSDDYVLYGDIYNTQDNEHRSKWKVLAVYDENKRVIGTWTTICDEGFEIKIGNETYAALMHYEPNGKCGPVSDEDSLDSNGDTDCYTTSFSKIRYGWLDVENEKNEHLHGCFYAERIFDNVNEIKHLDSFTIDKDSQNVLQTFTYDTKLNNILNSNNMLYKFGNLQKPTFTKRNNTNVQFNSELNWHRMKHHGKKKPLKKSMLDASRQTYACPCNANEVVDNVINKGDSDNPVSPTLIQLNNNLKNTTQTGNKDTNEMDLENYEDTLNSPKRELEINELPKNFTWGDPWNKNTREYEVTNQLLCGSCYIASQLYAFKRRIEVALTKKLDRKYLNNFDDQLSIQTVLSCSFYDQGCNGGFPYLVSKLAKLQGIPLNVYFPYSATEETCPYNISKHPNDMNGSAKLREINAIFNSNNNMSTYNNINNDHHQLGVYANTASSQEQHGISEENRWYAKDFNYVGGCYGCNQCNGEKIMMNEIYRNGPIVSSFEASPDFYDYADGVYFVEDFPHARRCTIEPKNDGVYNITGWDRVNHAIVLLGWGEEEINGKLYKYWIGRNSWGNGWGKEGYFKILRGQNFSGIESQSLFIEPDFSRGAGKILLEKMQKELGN

| SMILES | % Inhibition @ 10 uM |
| --- | --- |
| COc1ccc(C)cc1-n1cnc2cc(C(=O)NCc3ccco3)ccc21 | 2.8% |
| COC(=O)C1=C(C)N=C(C)/C(=C(/O)OC)C1c1ccc(Br)cc1 (centres unmarked) | -2.42% |
| CC(C)(C)C(=O)Nc1cccc(NC(=O)C(C)(C)C)n1 | -10% |
| Cc1nc2c(c(C)c1CCC(=O)NCCC1=CCCCC1)c(=O)n(C)c(=O)n2C | 5.32% |
| O=C(OCc1nc2ccccc2s1)c1cccs1 | -3.34% |
| N#CCc1ccc(NC(=O)c2ccc(COc3ccc(Cl)cc3)o2)cc1 | 3.57% |
| Cc1ccsc1-c1nc(CSCC(=O)NCc2cccnc2)c(C)o1 | 3.99% |
| CCOC(=O)c1c(C)[nH]c(C)c1S(=O)(=O)NCCN1CCCCCC1 | -7.53% |
| O=C1C(=O)N2C(=C1C(=O)N1CCCCC1)c1ccccc1CC21CCCC1 | 1.93% |
| COc1ccccc1CNC(=O)c1cc(O)nc2ccc(S(=O)(=O)N3CCCC(C)C3)cc12 (centres unmarked) | -1.34% |
| CCN(CC)C(=O)c1sc(N)c(C(=O)OC)c1C | 13.7% |
| CCN(Cc1nc(-c2cccc(C)c2)no1)C(=O)NC1CCCCC1 | -7.24% |
| Cc1ccc(-n2cc(-c3ccccc3)n(-c3ccccc3)c2=O)cc1 | -3.49% |
| COc1ccc2c(c1)N(S(=O)(=O)c1ccccc1)CCC2=O | -3.23% |
| COc1ccc(CN(C)CCN(C)C)cc1Br | -1.48% |
| CS(=O)(=O)N(CC(=O)Nc1ccc(Cl)cc1)c1ccc(Br)cc1 | -3.94% |
| O=C(CN(Cc1ccccc1Cl)S(=O)(=O)c1ccc(Cl)cc1)Nc1ccc2c(c1)OCO2 | -1.27% |
| CCC1CCC(N2CCCC(C(N)=O)C2)CC1 (centres unmarked) | -3.8% |
| CCC(=O)NC1=NC(=O)/C(=C/c2ccc(OCc3ccccc3F)cc2)S1 | -2.32% |
| COc1ccc2c(Sc3ccccc3)c(C(=O)N3CCC(C(N)=O)CC3)[nH]c2c1 | -5.95% |
| COc1ccc(C2Nc3cccc4cccc(c34)N2)c(OC)c1OC | 5.11% |
| CC1CCC2C(=O)N(c3cccc(C(=O)O)c3)C(=O)C2C1 (centres unmarked) | 8.92% |
| Cc1nnc(N2CCCC(C(=O)NCc3ccccc3)C2)c2nn(-c3ccc(Cl)cc3)c(C)c12 (centres unmarked) | 1.91% |
| O=C(Nc1ccc(C(F)(F)F)cc1)c1cccc(OC(F)F)c1 | 2.82% |
| O=C(NC1CCCCCC1)C1CCN(C(=O)c2ccc(Br)cc2)CC1 | -2.67% |
| COc1ccc(/N=C(\C)C2=C(O)CSCC2=O)cc1 | 1.03% |

| SMILES | % Inhibition @ 10 uM |
| --- | --- |
| CC(C)CCNC(=O)C1CCN(c2nc3ccc(Br)cc3s2)CC1 | 0.0882% |
| CC1Cn2c(C(=O)NCCCc3ccccc3)cc3cccc(c32)S1 (centres unmarked) | 2.32% |
| CCNC(=O)C1Cc2ccccc2CN1S(=O)(=O)c1cccs1 (centres unmarked) | -0.478% |
| COc1cccc(/C=C2\Sc3ccccc3C2=O)c1O | 2.01% |
| CC(C)(C)c1cn2c3ccccc3nc2n1CCCO | 0.177% |
| S=C(c1nc2ccccc2[nH]1)N1CCOCC1 | 1.26% |
| CC(C)(C)Nc1nc(Cl)nc(NC2CCCC2)n1 | 2% |
| O=C1CCC(c2ccc(Cl)cc2)=NN1 | -0.256% |
| O=C1/C(=C/c2cccc(O)c2)Sc2ccccc21 | 1.8% |
| CCCCNC(=O)Cn1ccc2cc(S(=O)(=O)N3CCCC3)ccc21 | 0.536% |
| Cc1ccccc1-c1nc(CS(=O)(=O)CC(=O)NCc2ccccc2Cl)c(C)o1 | -1.89% |
| OCCN1CCN(c2ncnc3scc(-c4ccccc4)c23)CC1 | -5.98% |
| O=C(OCC1CC(c2ccccc2)=NO1)c1ccc(Cl)cc1 (centres unmarked) | 1.91% |
| O=C(Nc1ccc2c(c1)-c1ccccc1C2=O)c1ccccc1 | 0.843% |
| COCCNC(=O)c1ccc2c(c1)c(C)c(C)n2C | 0.747% |
| CC(C)CCC(=O)NCC#N.COC(=O)c1ccc(-c2ccc(C=O)cc2)c(Cl)c1 | -3.48% |
| COCCNC(=O)c1ccc(CS(=O)c2ccccc2Cl)o1 (centres unmarked) | -0.434% |
| O=C(Nc1ccc2oc(-c3ccc(-c4ccccc4)cc3)nc2c1)c1ccncc1 | 4.58% |
| CCC1(C)CC(=O)c2c(ccc3oc(C(=O)N4CCc5ccccc5C4)c(C)c23)O1 (centres unmarked) | 2.84% |
| O=C(c1cccnc1)N1N=C(C(F)(F)F)CC1(O)c1ccncc1 (centres unmarked) | 4.11% |
| CC(C)CCNC(=O)CN(C)S(=O)(=O)c1cccc2nsnc12 | 0.317% |
| CC(C)OCCCNS(=O)(=O)c1ccc2[nH]c3c(c2c1)CCCC3 | 3.21% |
| CC(NS(=O)(=O)c1ccc(OCC(=O)Nc2ccc(F)cc2F)cc1)c1ccccc1 (centres unmarked) | 2.13% |
| CC(CC(=O)O)c1ccc2c(c1)n(C)c(=O)n2C (centres unmarked) | 2.22% |
| CC(NC(=O)c1c(O)nc2ccccc2c1O)c1ccccc1 (centres unmarked) | 0.219% |
| O=C(O)CCCC(=O)Nc1cccc(Cl)c1Cl | -2.55% |

| SMILES | % Inhibition @ 10 uM |
| --- | --- |
| COC(=O)c1ccc(Cl)c(-c2ccc(C(=O)N[C@@H](C[C@H](C)c3ccccc3)C(=O)NC3(C#N)CCSCC3)cc2)c1 | 16.9% |
| Cc1ccc(Cl)cc1-n1ncc2c(NCCCO)ncnc21 | -3.2% |
| CCCOC(=O)Nc1nnc(Cc2ccccc2)s1 | 0.927% |
| O=C(c1cccs1)n1cnc2ccccc21 | 0.486% |
| CCOC(=O)C1=C(CN2CC=C(c3ccccc3)CC2)NC(=O)NC1c1cccc(OC)c1OC (centres unmarked) | -1.3% |
| CCOc1ccc(-c2cc(CCCC(=O)NCc3cccnc3)no2)cc1 | -11.1% |
| O=C1N(c2ccc(Br)cc2)C2CS(=O)(=O)CC2N1c1cccc(Cl)c1 (centres unmarked) | 8.09% |
| COc1ccc(N2CCN(Cc3cc([N+](=O)[O-])ccc3Cl)CC2)cc1 | -5.57% |
| CC(C)C[C@H](NC(=O)OCc1cccc2ccccc12)C(=O)NCC#N | -3.04% |
| CCc1cccc(C)c1NC(=O)c1cccc(NC(=O)C(C)C)c1 | -8.53% |
| Cc1cccc(OCCCn2c(CO)nc3ccccc32)c1 | -2.28% |
| Cc1cc(C)c2c(-n3cccc3)c(C(=O)N3CCC(C(N)=O)CC3)sc2n1 | 0.623% |
| COc1ccc(CC(=O)c2ccc(OC)c(OC)c2)cc1 | 4.84% |
| O=C(Nc1ccc(S(=O)(=O)NCCc2ccccc2)cc1)c1cccs1 | -7.09% |
| COC(=O)C1=CN(Cc2ccc(OC)c(OC)c2)C=C(C(=O)OC)C1c1ccccc1OC(C)C | -5.05% |
| CCC(C)c1ccc(NC(=O)c2ccccc2[N+](=O)[O-])cc1 (centres unmarked) | 4.33% |
| CCOC(=O)C1=C(CN2CCN(c3ccc(Cl)nn3)CC2)NC(=O)NC1c1ccc(OC)cc1 (centres unmarked) | 0.6% |
| CC(C)C[C@H](NC(=O)OCc1ccccc1)C(=O)N[C@@H](Cc1c[nH]c2ccccc12)C(=O)C[N+](=O)[O-] | -11% |
| COc1ccc(C2CC(=O)N=C(NC(=O)c3cccc(OC)c3)N2)cc1 (centres unmarked) | -7.01% |
| COC(=O)c1ccc(-c2ccco2)n1CC(=O)NCCCN1CCOCC1 | -10.7% |
| C=CCOC(=O)c1c2c(n3ccc(C)cc13)C(=O)c1ccccc1C2=O | -6.78% |
| COc1ccc2c(c1)N(S(=O)(=O)c1ccc(C)cc1)CCCC2=O | 4.32% |
| Cc1ccc(Cc2cnc(CN(C)C)c(O)c2)cc1 | -0.999% and 6.08% |
| C=CCOc1ccccc1/C=c1\sc2nc(=O)c(C)nn2c1=O | -3.56% |
| COc1cccc(CNc2c(C)c(C)nc3nncn23)c1 | -2.57% |
| CCCC(=O)Nc1ccc(Oc2ccc(Cl)cc2)cc1 | 3.04% |

| SMILES | % Inhibition @ 10 uM |
| --- | --- |
| O=c1oc2ccc(NS(=O)(=O)c3cc(Cl)ccc3Cl)cc2s1 | -2.94% |
| Nc1nc2n(n1)C1(CCCCC1)C1=C(CCCC1)N2 | 9.51% |
| O=C(Nc1cccc(Cl)c1)N1CCC/C1=N\c1ccc(Cl)cc1 | 4.61% |
| CCOC(=O)c1ccc(-c2ccc(/C=C3/C(=O)ON=C3C)o2)cc1 | 3.86% |
| OC1(c2cccs2)C[N+](c2ccccc2)=C2CCCCN21 (centres unmarked) | 3.99% |
| CC1CCCC(N2CCCC(O)C2)C1 (centres unmarked) | 3.19% |
| Cn1ncc2c(N(CCO)CCO)ncnc21 | 3.99% |
| CCC(C(=O)Nc1c2c(nn1-c1cccc(Cl)c1)CS(=O)(=O)C2)c1ccccc1 (centres unmarked) | 7.53% |
| Cc1nn(C(C)C(=O)NC2CCCCCC2)c(=O)c2nn(-c3ccccc3)c(C)c12 (centres unmarked) | -3.62% |
| CCC(NC(=O)CSc1nc2ccccc2o1)C12CC3CC(CC(C3)C1)C2 (centres unmarked) | 0.883% |
| Cc1ccc(S(=O)(=O)N(C)CCCC(=O)N2CCCCC2)cc1 | -0.999% |
| Cc1ccccc1C(=O)n1nc(-c2cccnc2)nc1NCc1cccs1 | -6.64% |
| Cc1ccc(S(=O)(=O)N(C)CC(=O)NCc2nc(-c3ccccc3)no2)cc1 | 0.486% |
| CC(C)CNC(=O)c1ccc2c3c(onc13)-c1ccccc1C2=O | 1.57% |
| COc1cccc(-c2ccc(C#N)c(SCC(=O)NCc3ccc4c(c3)OCO4)n2)c1 | -0.68% |
| O=C1/C(=C/c2ccsc2)Cc2ccccc21 | 1.83% |
| Cc1nc(-c2cnn(-c3ccccc3)c2)c2cc(C)oc2n1 | 1.24% |
| O=C(CC(c1cccs1)N1Cc2ccccc2C1=O)N1CCCCC1 (centres unmarked) | 3.31% |
| CCCN1CCC(NCc2cccc(Cl)c2)CC1 | 1.83% |
| CCC(NC(=O)[C@H](CC1CCCCC1)/N=C(\C)NS(=O)(=O)c1ccccc1)C(=O)c1nc2ccccc2o1 (some centres unmarked) | -3.14% |
| C=CCn1c(S)nnc1CCC(O)COCCC(C)C (centres unmarked) | -5.26% |
| CCS(=O)(=O)c1nc(S(=O)(=O)c2ccc(Cl)cc2)c(NC)s1 | -2.25% |
| Cc1ccc(-c2c(NCc3ccc(Cl)cc3)c(=O)c2=O)cc1C | -2.57% |
